Source: publication PMC4274898
Results are given in words; binding and its absence hold for the method and conditions named. Some binding calls cover weakened binding; strength is not graded here.

B1: Aux/IAA32 (protein, UniProt Q8RYC6 1-191)
chain: MDPNTPADFFKGSSKFHTYYSQTKKGGGVIDLGLSLRTIQHETYLPPARMIGLDGYGELIDWSQPSYNSITQLKSEDTGHQRLAQGYYNNEGESRGKYAYVKVNLDGLVVGRKVCLVDQGAYATLALQLNDMFGMQTVSGLRLFQTESEFSLVYRDREGIWRNVGDVPWKEFVESVDRMRIARRNDALLPF
B2: Aux/IAA1 (protein, UniProt P49677 1-168)
chain: MEVTNGLNLKDTELRLGLPGAQEEQQLELSCVRSNNKRKNNDSTEESAPPPAKTQIVGWPPVRSNRKNNNNKNVSYVKVSMDGAPYLRKIDLKMYKNYPELLKALENMFKFTVGEYSEREGYKGSGFVPTYEDKDGDWMLVGDVPWDMFSSSCQKLRIMKGSEAPTAL
B3: Aux/IAA6 (protein, UniProt Q38824 1-189)
chain: MAKEGLALEITELRLGLPGDNYSEISVCGSSKKKKRVLSDMMTSSALDTENENSVVSSVEDESLPVVKSQAVGWPPVCSYRRKKNNEEASKAIGYVKVSMDGVPYMRKIDLGSSNSYINLVTVLENLFGCLGIGVAKEGKKCEYIIIYEDKDRDWMLVGDVPWQMFKESCKRLRIVKRSDATGFGLQQD
B4: Aux/IAA8 (protein, UniProt Q38826 1-321)
chain: MSYRLLSVDKDELVTSPCLKERNYLGLSDCSSVDSSTIPNVVGKSNLNFKATELRLGLPESQSPERETDFGLLSPRTPDEKLLFPLLPSKDNGSATTGHKNVVSGNKRGFADTWDEFSGVKGSVRPGGGINMMLSPKVKDVSKSIQEERSHAKGGLNNAPAAKAQVVGWPPIRSYRKNTMASSTSKNTDEVDGKPGLGVLFVKVSMDGAPYLRKVDLRTYTSYQQLSSALEKMFSCFTLGQCGLHGAQGRERMSEIKLKDLLHGSEFVLTYEDKDGDWMLVGDVPWEIFTETCQKLKIMKGSDSIGLAPGAVEKSKNKERV
B5: Aux/IAA9 (protein, UniProt Q38827 1-338)
chain: MSPEEELQSNVSVASSSPTSNCISRNTLGGLKEHNYLGLSDCSSVGSSTLSPLAEDDKATISLKATELTLGLPGSQSPARDTELNLLSPAKLDEKPFFPLLPSKDEICSSSQKNNASGNKRGFSDTMDQFAEAKSSVYTEKNWMFPEAAATQSVTKKDVPQNIPKGQSSTTNNSSSPPAAKAQIVGWPPVRSYRKNTLATTCKNSDEVDGRPGSGALFVKVSMDGAPYLRKVDLRSYTNYGELSSALEKMFTTFTLGQCGSNGAAGKDMLSETKLKDLLNGKDYVLTYEDKDGDWMLVGDVPWEMFIDVCKKLKIMKGCDAIGLAAAPRAMEKSKMRA
B6: Aux/IAA10 (protein, UniProt Q38828 1-261)
chain: MNGLQEVCSSSGSVMIGLPAEEDENAAHSSEDSSCPDESVSETELDLALGLSIGRRKVRSSLSSSSSSLTRESGTKRSADSSPAAASNATRQVAVGWPPLRTYRINSLVNQAKSLATEGGLSSGIQKETTKSVVVAAKNDDACFIKSSRTSMLVKVTMDGVIIGRKVDLNALDSYAALEKTLDLMFFQIPSPVTRSNTQGYKTIKETCTSKLLDGSSEYIITYQDKDGDWMLVGDVPWQMFLGSVTRLRIMKTSIGAGVGK
B7: Aux/IAA11 (protein, UniProt Q38829 1-246)
chain: MEGGSASGSASALSNDENLVVSCEDSSSPIGNELELGLTLSLGRKGYRDCRVYADDSSSSSSSSSLSRASVIAGIKRTADSMAATSGQVVGWPPIRTYRMNSMVNQAKASATEDPNLEISQAVNKNRSDSTKMRNSMFVKVTMDGIPIGRKIDLNAHKCYESLSNTLEEMFLKPKLGSRTLETDGHMETPVKILPDGSSGLVLTYEDKEGDWMLVGDVPWGMFIGSVRRLRIMKTSEATGKAQMIL
B8: Aux/IAA12 (protein, UniProt Q38830 1-239)
chain: MRGVSELEVGKSNLPAESELELGLGLSLGGGAWKERGRILTAKDFPSVGSKRSAESSSHQGASPPRSSQVVGWPPIGLHRMNSLVNNQAMKAARAEEGDGEKKVVKNDELKDVSMKVNPKVQGLGFVKVNMDGVGIGRKVDMRAHSSYENLAQTLEEMFFGMTGTTCREKVKPLRLLDGSSDFVLTYEDKEGDWMLVGDVPWRMFINSVKRLRIMGTSEASGLAPRRQEQKDRQRNNPV
B9: Aux/IAA13 (protein, UniProt Q38831 1-247)
chain: MITELEMGKGESELELGLGLSLGGGTAAKIGKSGGGGAWGERGRLLTAKDFPSVGSKRAADSASHAGSSPPRSSSQVVGWPPIGSHRMNSLVNNQATKSAREEEEAGKKKVKDDEPKDVTKKVNGKVQVGFIKVNMDGVAIGRKVDLNAHSSYENLAQTLEDMFFRTNPGTVGLTSQFTKPLRLLDGSSEFVLTYEDKEGDWMLVGDVPWRMFINSVKRLRVMKTSEANGLAARNQEPNERQRKQPV
B10: Aux/IAA15 (protein, UniProt Q9C966 1-179)
chain: MSPEEYVRVWPDSGDLGGTELTLALPGTPTNASEGPKKFGNKRRFLETVDLKLGEAHENNYISSMVTNDQLVGWPPVATARKTVRRKYVKVALDGAAYLRKVDLGMYDCYGQLFTALENMFQGIITICRVTELERKGEFVATYEDKDGDLMLVGDVPWMMFVESCKRMRLMKTGDAIGL

What follows are binders tested against T1, ARF7 (Arabidopsis thaliana) (UniProt P93022) (assay: two-hybrid; S. cerevisiae AH109 co-transformed with pGBKT7-ARF (bait) and pGADT7-Aux/IAA (prey); growth on SD/-Ade-His-Leu-Trp against SD/-Leu/-Trp; at least 10 independent colonies; serial dilutions for strength).
T1 sequence: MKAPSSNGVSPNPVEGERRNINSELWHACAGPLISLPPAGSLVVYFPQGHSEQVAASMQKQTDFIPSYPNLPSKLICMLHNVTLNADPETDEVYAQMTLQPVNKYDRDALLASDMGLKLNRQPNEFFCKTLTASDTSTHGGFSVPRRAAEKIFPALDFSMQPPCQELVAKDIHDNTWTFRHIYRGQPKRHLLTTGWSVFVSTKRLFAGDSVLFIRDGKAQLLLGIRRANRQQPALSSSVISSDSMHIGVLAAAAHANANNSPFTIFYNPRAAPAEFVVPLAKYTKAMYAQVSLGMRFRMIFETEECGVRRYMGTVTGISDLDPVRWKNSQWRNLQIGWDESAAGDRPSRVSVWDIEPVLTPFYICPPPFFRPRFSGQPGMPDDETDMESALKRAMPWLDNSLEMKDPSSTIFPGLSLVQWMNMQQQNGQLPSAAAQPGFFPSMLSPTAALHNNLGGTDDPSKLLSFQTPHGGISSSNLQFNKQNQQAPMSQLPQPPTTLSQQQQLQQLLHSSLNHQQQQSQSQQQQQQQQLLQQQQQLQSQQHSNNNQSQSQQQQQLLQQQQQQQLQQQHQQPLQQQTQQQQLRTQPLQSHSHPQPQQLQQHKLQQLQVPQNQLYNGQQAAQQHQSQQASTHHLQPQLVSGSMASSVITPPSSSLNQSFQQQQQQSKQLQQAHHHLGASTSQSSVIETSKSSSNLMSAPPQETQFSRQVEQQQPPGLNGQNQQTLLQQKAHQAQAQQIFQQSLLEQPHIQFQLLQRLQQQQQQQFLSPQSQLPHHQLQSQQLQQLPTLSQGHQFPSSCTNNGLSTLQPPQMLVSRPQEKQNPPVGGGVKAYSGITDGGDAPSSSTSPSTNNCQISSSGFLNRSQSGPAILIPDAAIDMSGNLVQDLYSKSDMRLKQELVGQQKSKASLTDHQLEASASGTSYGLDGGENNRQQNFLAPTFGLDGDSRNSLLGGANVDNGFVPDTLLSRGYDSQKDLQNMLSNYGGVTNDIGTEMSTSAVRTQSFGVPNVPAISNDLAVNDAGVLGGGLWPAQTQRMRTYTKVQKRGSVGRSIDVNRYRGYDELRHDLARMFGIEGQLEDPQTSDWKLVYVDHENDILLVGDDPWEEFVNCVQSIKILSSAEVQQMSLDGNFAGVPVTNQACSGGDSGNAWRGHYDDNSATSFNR
B1 was tested, and the binding was “binds”.
In the case of B2, the binding is reported as “binds”.
For B3, the binding was “binds”.
In the case of B4, the binding is reported as “binds”.
B5 was tested, and the binding was “binds”.
B6 was tested, and the binding was “binds”.
For B7, the binding was “binds”.
B8 was tested, and the binding was “binds”.
B9 was tested, and the binding was “binds”.
For B10, the binding was “binds”.

The binders below were run against T2, ARF8 (Arabidopsis thaliana) (UniProt Q9FGV1) in the same assay as above.
T2 sequence: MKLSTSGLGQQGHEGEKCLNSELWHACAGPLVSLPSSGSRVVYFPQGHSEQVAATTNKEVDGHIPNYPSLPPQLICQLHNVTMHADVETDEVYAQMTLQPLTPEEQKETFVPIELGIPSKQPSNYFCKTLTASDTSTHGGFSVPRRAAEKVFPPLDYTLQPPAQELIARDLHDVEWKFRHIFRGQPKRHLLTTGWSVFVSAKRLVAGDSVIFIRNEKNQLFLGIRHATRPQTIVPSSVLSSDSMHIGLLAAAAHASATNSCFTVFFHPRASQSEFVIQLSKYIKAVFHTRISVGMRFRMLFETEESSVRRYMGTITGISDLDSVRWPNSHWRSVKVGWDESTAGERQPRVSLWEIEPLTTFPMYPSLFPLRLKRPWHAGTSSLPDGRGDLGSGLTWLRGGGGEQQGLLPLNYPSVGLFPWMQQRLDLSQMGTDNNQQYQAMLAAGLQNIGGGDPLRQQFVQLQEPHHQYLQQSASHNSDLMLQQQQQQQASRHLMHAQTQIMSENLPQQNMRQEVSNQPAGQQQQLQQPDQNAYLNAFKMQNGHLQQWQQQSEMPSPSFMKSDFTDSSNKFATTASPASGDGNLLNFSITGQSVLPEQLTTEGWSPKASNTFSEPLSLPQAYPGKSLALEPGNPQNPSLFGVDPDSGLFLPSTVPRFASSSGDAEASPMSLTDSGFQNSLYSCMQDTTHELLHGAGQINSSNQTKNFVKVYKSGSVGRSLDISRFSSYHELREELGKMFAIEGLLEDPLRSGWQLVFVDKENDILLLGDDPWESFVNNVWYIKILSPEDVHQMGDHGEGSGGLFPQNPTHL
For B1, the binding was “binds”.
For B2, the binding was “binds”.
With B3 the binding was “binds”.
With B4 the binding was “binds”.
For B5, the binding was “binds”.
In the case of B6, the binding is reported as “binds”.
For B7, the binding was “binds”.
In the case of B8, the binding is reported as “binds”.
With B9 the binding was “binds”.
In the case of B10, the binding is reported as “binds”.

Each binder was assayed against T3, ARF3 (Arabidopsis thaliana) (UniProt O23661) in the same assay as above.
T3 sequence: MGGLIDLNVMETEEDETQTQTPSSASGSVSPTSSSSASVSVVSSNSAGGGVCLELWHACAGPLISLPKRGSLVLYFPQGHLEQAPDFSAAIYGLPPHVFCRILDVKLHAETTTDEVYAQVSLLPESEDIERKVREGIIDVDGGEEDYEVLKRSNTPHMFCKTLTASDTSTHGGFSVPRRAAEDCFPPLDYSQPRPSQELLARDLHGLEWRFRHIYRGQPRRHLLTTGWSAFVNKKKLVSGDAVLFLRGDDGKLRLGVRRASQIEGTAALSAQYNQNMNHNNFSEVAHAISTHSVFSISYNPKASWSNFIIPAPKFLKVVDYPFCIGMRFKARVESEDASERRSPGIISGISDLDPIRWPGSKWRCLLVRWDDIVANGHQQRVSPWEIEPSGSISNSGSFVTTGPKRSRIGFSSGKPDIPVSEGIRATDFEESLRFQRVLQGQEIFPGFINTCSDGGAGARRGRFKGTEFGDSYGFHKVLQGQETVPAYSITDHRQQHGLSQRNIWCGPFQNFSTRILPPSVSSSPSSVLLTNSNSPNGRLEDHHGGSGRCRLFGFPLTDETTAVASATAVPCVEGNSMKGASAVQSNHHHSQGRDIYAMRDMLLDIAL
With B1 the binding was “no binding”.
B2 was tested, and the binding was “no binding”.
In the case of B3, the binding is reported as “no binding”.
B4 was tested, and the binding was “no binding”.
For B5, the binding was “no binding”.
In the case of B6, the binding is reported as “no binding”.
In the case of B7, the binding is reported as “no binding”.
In the case of B8, the binding is reported as “no binding”.
For B9, the binding was “no binding”.
In the case of B10, the binding is reported as “no binding”.
